For this assay, the target named is T1, SENP3 purified protein (UniProt Q9H4L4 1-574).
T1 construct: SENP3; cloned into pET-28a(+) between BamHI and HindIII; also called wild-type SENP3; pET-28a (+)-SENP3; source: E. coli Rosetta (DE3), purified (Ni-NTA)
Briefly: co-IP; in vitro immunoprecipitation with Flag antibody using purified recombinant proteins. Conditions: both partners purified.

B1: NPM1Δ2-9 (natural protein)
chain: not shown
notes: NPM1 without residues 2-9; Flag tag surmised as for m14; also called N-terminal deletion; N-terminal truncation
On to B1, for which the binding result was “binds”.

(Values after publication PMC12847774, “SERPINB3 enhances NPM1 sumoylation via inhibiting SENP3’s activity and promotes lung tumorigenesis” (Cell Death & Disease, 2025).)
